Test results from paper PMC4336329 (PLoS ONE, 2015).
The campaign covered roughly 310,000 compounds. About 14,000 (4.5%) showed an effect of 50% or more. Effects have a minus sign here. Some of the results follow.

What follows are molecules tested against human ether-à-go-go-related gene (hERG) potassium channel (human, UniProt Q12809) (assay: primary screen, population patch clamp on CHO cells stably expressing hERG).
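Note: peak tail current of the secondary pulse compared with the same well before compound.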

Sequence of human ether-à-go-go-related gene (hERG) potassium channel (Q12809 whole entry, looked up): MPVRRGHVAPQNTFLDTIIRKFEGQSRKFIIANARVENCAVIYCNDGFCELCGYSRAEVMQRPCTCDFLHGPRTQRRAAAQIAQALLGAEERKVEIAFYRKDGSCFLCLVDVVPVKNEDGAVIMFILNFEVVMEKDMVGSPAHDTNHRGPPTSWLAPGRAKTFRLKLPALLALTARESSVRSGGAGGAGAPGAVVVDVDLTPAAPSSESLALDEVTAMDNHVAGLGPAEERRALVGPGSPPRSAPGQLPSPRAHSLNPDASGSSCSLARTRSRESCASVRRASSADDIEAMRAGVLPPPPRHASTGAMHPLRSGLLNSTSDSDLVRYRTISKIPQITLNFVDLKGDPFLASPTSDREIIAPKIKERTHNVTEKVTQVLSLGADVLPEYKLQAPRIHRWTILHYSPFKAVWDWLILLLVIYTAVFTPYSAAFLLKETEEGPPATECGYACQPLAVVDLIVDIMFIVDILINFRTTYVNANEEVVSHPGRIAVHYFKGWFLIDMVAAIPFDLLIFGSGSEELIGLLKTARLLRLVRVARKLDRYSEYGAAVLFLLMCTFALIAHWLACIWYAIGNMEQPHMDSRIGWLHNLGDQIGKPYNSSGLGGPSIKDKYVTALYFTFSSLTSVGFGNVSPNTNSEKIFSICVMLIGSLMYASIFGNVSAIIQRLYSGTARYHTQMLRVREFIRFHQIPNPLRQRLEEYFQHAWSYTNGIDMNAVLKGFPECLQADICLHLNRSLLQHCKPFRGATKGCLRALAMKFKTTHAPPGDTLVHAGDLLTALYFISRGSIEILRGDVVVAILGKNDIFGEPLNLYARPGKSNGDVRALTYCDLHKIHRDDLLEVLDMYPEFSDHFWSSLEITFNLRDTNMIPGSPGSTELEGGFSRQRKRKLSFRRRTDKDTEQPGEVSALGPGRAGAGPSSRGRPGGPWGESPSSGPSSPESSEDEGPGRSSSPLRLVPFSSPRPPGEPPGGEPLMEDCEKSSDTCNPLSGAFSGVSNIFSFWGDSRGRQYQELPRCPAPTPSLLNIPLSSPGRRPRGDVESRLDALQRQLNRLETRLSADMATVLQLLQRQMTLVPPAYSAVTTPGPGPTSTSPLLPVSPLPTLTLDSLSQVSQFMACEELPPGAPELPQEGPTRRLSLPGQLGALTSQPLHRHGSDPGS

SMILES	hERG current change (%, negative = inhibition) at 10uM [%]
Cc1ccc(OCC(=O)NCC(=O)Nc2ccc(F)c(F)c2F)c([N+](=O)[O-])n1	-34.4
O=c1nc(-c2ccccc2)c(-c2ccccc2)n[nH]1	20
Cn1c2ccccc2c2ncn(CCN3CCOCC3)c(=O)c21	-4.89
COc1ccc([C@H]2CC(=O)C=C(c3ccc(SC)cc3)C2)cc1OC	25.4
COc1ccc(Cn2c(N)c(C#N)c3nc4ccccc4nc32)cc1	11.2
COc1ccccc1NS(=O)(=O)c1cccc(C(=O)NCC(c2ccccc2OC)N2CCCC2)c1 (centres unmarked)	-12.9
O=C(Nc1ccc2c(c1)OCO2)OCc1ccccc1	-26.2
Cc1ccccc1-c1noc(CCC(=O)NCCc2ccccc2)n1	10.4
CC1CCN(c2ccccc2NC(=O)c2cc3ccccc3o2)CC1	25
COc1ccc(Cl)cc1S(=O)(=O)NC(C)C(=O)NCc1ccncc1 (centres unmarked)	10.3
CCn1c(=O)ccc2cc([N+](=O)[O-])ccc21	12.5
O=C(c1ccc(Cl)c([N+](=O)[O-])c1)N(Cc1ccc(Cl)cc1)C1CCS(=O)(=O)C1 (centres unmarked)	-31.4
O=C(c1cccs1)N1CCN(c2cccc(Cl)c2)CC1	-16.5
CCOc1ccc(C2C(C(=O)Nc3ccc(F)cc3)=C(C)Nc3nc(CCCO)nn32)cc1 (centres unmarked)	-3.24
Cc1ccc(S(=O)(=O)CCc2ccncc2)cc1	25.4
O=C(O)CN1C(=O)C2C3CC(C2C1=O)C1C(c2ccccc2)c2sc(=O)[nH]c2SC31 (centres unmarked)	15
Cn1cccc1C(=O)OCC(=O)N1CC(=O)Nc2ccccc21	0.467
O=C(/C=C/c1c(Cl)cccc1Cl)N1CCOCC1	24.8
CCOc1ncccc1C(=O)NCc1ccccc1F	-8.05
C=CCc1ccc(OCC(O)CN2CCN(c3ccccc3)CC2)c(OC)c1.Cl (centres unmarked)	-70.3
Cc1cc(C)nc(NS(=O)(=O)c2ccc(NC(=O)C3(c4ccccc4)CCCC3)cc2)n1	-16.9
Cn1cc(S(=O)(=O)N2CCN(c3ccccc3)CC2)c(=O)n(C)c1=O	-3.38

SMILES	hERG current change (%, negative = inhibition) at 10uM [%]
Cc1ccc(C(=O)Oc2coc(CSc3nnc(NC(=O)c4cccs4)s3)cc2=O)cc1C	-4
CNCC(O)c1cc(F)c(OCc2ccccc2)c(OCc2ccccc2)c1F (centres unmarked)	-10.7
Cc1ccc(CNC(=O)CCCC(=O)c2ccccc2)cc1	-9.96
C/C(CCc1ccc2c(c1)OCO2)=N\NC(=O)c1ccc(C)cc1C	8.03
CCOc1cc(/C=N\NC(=O)c2ccc(NC(=O)C(C)(C)C)cc2)ccc1OC(=O)c1ccc(OC)cc1	20.5
O=C(COC(=O)[C@H](Cc1ccccc1)N1C(=O)c2ccccc2C1=O)Nc1ccc2c(c1)OCO2	-8.45
Cn1c(Cc2cccs2)n[nH]c1=S	10.1
Cc1cc(NC(=O)CSc2nnc(C3CC3)n2C)no1	22.4
COc1ccc(Cl)cc1C(=O)Nc1ccc(S(N)(=O)=O)cc1	-1.91
CC(=O)O[C@H]1C[C@@]2(C)[C@@H](C[C@@H](O)[C@H]3[C@@]4(C)CC[C@@H](O)[C@@H](C)C4CC[C@@]32C)/C1=C(\CCC=C(C)C)C(=O)[O-].[Na+] (some centres unmarked)	-0.0437
C/C(=N\NS(=O)(=O)c1ccc(C)c([N+](=O)[O-])c1)c1cc2ccccc2o1	-9.98
COc1ccc(/C=C/C(=O)Nc2ccc(OC)cc2[N+](=O)[O-])cc1	-5.97
C=CCNC(=O)C1CC(=O)N(c2ccc(C)cc2)C1 (centres unmarked)	-16.1
Cc1ccc(C(=O)N2CCCC(C(=O)c3ccc(Oc4ccccc4)cc3)C2)cn1 (centres unmarked)	-41
O=C1Nc2ccc(F)cc2C12Nc1ccccc1-c1nnc(SCc3ccccc3)nc1O2 (centres unmarked)	-13.2
CC(=O)Nc1ccc(NS(=O)(=O)c2c(Cl)cccc2Cl)cc1	-5.6
COc1ccc(CCNC(=O)Cc2cc(OC)c(OC)cc2[N+](=O)[O-])cc1OC	3.56
CCOc1ccc(C(CC(=O)O)NS(=O)(=O)c2ccc(C)cc2)cc1OC (centres unmarked)	10.3
CSCCC(NC(=O)COc1ccccc1)C(=O)OC(C)C(=O)Nc1ccccc1C (centres unmarked)	-8.61
Clc1ccc(CN2CCCCCCC2)cc1	-33.1
CN(C)CC/C=C1/c2ccc(F)cc2Sc2ccc(Cl)cc21.Cl	5.06
Cn1cccc1C(=O)NNC(=O)COc1ccccc1Cl	1.72

SMILES	hERG current change (%, negative = inhibition) at 10uM [%]
CC(C)SCCCCOc1ccc2ccccc2c1	-9.37
CC1C/C(=N/NC(=O)c2ccc(CSc3nc4ccccc4[nH]3)cc2)CC(C)(C)C1 (centres unmarked)	10.4
CC(NC(=O)c1cccs1)C(c1cccs1)N1CCN(Cc2ccccc2)CC1 (centres unmarked)	-72.7
Cc1ccc(C2CC(c3ccccc3)=NN2C(=O)CSc2nnc(-c3ccncc3)n2C)o1 (centres unmarked)	-13.2
O=C(Nc1nnc(CCc2ccccc2)s1)C1CCCO1 (centres unmarked)	-12.7
O=C(NC(=O)N1CCN(C(c2ccccc2)c2ccccc2)CC1)c1ccccc1	-4.96
CCOC(=O)c1cc(-c2csc(-c3ccc(C(C)(C)C)cc3)n2)on1	21.5
Cc1ccc(C(C#N)c2ccc(C(=O)c3ccc(F)cc3)cc2)cc1 (centres unmarked)	-1.77
C[N+]1(CCn2ccc3ccccc32)CCCCC1.[I-]	18.3
S=C1NCCNC(=S)NCCOCCOCCOCCN1	15.2
O=C(N/N=C/c1ccccn1)c1cc(-c2cccc3ccccc23)n[nH]1	-18.3
Cn1cnc([N+](=O)[O-])c1Sc1ncn[nH]1	21
CC1CCCC(C)N1C(=O)CSc1ncccn1 (centres unmarked)	19.6
O=C1CN(C(=O)COC(=O)/C=C/c2ccc(S(=O)(=O)N3CCOCC3)cc2)c2ccccc2N1	13.2
O=C(Nc1ccccc1C(=O)NC(Cc1c[nH]c2ccccc12)C(=O)O)c1ccco1 (centres unmarked)	-6.2
COC(=O)c1sc(NC(=S)NC(=O)c2ccccc2Cl)nc1C	11.1
COCC(=O)N1CCC(Oc2ccc(C(=O)NCc3cc(C)no3)cc2)CC1	1.51
COc1ccc(OC)c(CC(NC(C)=O)C(=O)NC2CCN(c3c(Cc4ccccc4)c(C)nc4ncnn34)CC2)c1 (centres unmarked)	-17
CCOc1cc(CNCCc2ccc(S(N)(=O)=O)cc2)ccc1OCC(=O)NC1CCCCC1.Cl	-36.3
O=C(CCCCCn1c(=S)[nH]c2ccc(N3CCOCC3)cc2c1=O)NCc1ccc(Cl)cc1	15.7
CCCC(=O)NNc1cc(=O)c2c(=O)n(C)c(=O)n(C)c2[nH]1	4.42
COCCOC(=O)c1[nH]c2c(c1C)C(=O)C(C(=O)OC)C(C)C2 (centres unmarked)	-4.76

SMILES	hERG current change (%, negative = inhibition) at 10uM [%]
O=C(CSc1nnc(NC(=O)c2ccco2)s1)Nc1ccc2c(c1)OCCO2	24.7
CSc1ncccc1C(=O)OCC(=O)c1cc(C)n(CC2CCCO2)c1C (centres unmarked)	-35.5
CC(=O)Oc1ccc(/C=N/NS(=O)(=O)c2ccc(C)cc2)c(OC(C)=O)c1	9.58
O=C(NC1CCCC1)C(c1ccsc1)N(C(=O)Cc1cccs1)c1cccc(F)c1 (centres unmarked)	24.7
Cc1[nH]c2ccccc2c1C(=O)C(=O)N1CCCc2ccccc21	-10.6
CC(=O)N1CCc2cc(C(=O)CN3CCCCC3)ccc21	6.69
COc1cccc(N(C(=O)C2CSC(=O)C2)C(C(=O)NC(C)(C)C)c2ccncc2)c1 (centres unmarked)	55.5
O=C(CSCc1ccc(F)cc1)N1CCN(c2ccc(F)cc2)CC1	-41.8
CCCc1nc(N)nc2c1C(=O)CC(C)(C)C2	-4.47
COc1cc(C=O)cc(OC)c1OS(=O)(=O)c1ccc(NC(C)=O)cc1	11.6
O=C1NC(=S)N/C1=C/c1ccc2ccccc2c1	12.7
CCCOc1ccc(/C=N/NC(=O)C(C)Sc2ccccn2)cc1OCC (centres unmarked)	14.9
COc1ccc(CNC(=O)CN(C)S(=O)(=O)c2ccc3c(c2)c(=O)n(C)c(=O)n3C)cc1	-1.26
CC(Cc1ccccc1)NC(=O)CN1C(=O)c2ccccc2S1(=O)=O (centres unmarked)	-1.55
COc1ccc(OCC#CCNC(C)(C)C)cc1.O=C(O)C(=O)O	4.38
O=C(O)C(=O)O.OC(COCc1cccs1)CN1CCN(c2cccc(Cl)c2)CC1 (centres unmarked)	-63.8
CCOC(=O)C1(C)NC(c2ccc(O)cc2)C2C(=O)N(c3ccccc3)C(=O)C21 (centres unmarked)	21.5
Cn1c(=O)n(C)c2cc(C(=O)Nc3ccc4c(c3)OCO4)ccc21	-3.82
Cc1c(Cl)cccc1NC(=S)N1CCN(Cc2ccc3c(c2)OCO3)CC1	21.5
Cc1ccc(S(=O)(=O)N(C)C)cc1NC(=O)COC(=O)/C=C/c1cccs1	3.08
